Test results reported in PubChem BioAssay AID488969 (Vanderbilt High Throughput Screening Facility, 2010).
The full ranking holds about 110,000 compounds; the median of “z-score” is about -0.1, and the highest 2% start at about 2. This is one part of the list.

What follows are molecules tested against Metabotropic glutamate receptor 8 (Rattus norvegicus) (UniProt P70579) (assay: mGluR8 Gi/Go-coupled signaling modulation – cell-based, rat, thallium flux, HTS, primary screen (AID 488969)). Conditions: HEK293 rat mGluR8, GIRK (G protein-gated inwardly rectifying potassium channel) thallium flux, FluoZin2; at 10 µM; stronger effect = higher value; submaximal glutamate (EC20) added with thallium.
UniProt P70579, sequence (P70579 whole entry, looked up): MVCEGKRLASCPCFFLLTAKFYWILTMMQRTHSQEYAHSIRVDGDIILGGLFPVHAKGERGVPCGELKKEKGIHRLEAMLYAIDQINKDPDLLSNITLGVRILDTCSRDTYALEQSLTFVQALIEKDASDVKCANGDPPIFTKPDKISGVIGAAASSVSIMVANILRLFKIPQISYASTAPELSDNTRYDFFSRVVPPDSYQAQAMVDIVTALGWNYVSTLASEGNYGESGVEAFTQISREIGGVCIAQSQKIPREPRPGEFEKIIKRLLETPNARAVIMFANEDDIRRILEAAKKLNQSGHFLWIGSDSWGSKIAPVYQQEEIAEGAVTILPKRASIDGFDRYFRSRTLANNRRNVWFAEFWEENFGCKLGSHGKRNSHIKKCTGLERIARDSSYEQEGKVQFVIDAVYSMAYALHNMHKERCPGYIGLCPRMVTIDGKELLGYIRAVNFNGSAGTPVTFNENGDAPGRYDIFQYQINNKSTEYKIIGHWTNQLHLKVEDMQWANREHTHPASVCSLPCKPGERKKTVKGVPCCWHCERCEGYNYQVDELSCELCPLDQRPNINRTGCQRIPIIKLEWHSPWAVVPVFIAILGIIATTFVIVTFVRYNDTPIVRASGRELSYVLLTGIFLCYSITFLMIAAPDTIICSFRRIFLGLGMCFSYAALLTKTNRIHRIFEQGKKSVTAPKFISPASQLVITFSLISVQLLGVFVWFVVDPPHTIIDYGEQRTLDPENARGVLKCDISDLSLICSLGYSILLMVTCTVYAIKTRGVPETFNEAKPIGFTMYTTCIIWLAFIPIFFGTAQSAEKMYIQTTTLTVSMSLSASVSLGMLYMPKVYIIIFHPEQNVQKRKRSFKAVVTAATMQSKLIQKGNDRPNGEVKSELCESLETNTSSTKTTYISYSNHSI

First: CC1(C)Cc2c(cnn2-c2ccccc2)C(=O)/C1=N\NC(=O)c1ccccc1N
Second: O=C(N/N=C/c1c[nH]c2ccccc12)C1CC1c1ccccc1 (configuration not stated)
The z-score of the first is higher: 0.229 for the first, -0.408 for the second.

Going from `COc1ccc(C2CC(c3ccccc3)=NN2C(=O)CSc2ncccn2)cc1` (configuration not stated) to `Cc1ccc(S(=O)(=O)c2nc(-c3ccccc3)oc2NCc2cccnc2)cc1`, the z-score falls from -0.635 to -2.37.

First: NNC(=O)c1cnn(Cc2ccccc2)c1N
Second: Cc1cnc(NC(=O)CSc2nnc(Cc3ccccc3)o2)s1
The z-score of the first is lower: 0.0742 for the first, 0.123 for the second.

Compared with `CCOP(=O)(c1ccccc1)C(O)c1ccc(Br)cc1` (configuration not stated), `CCN1C(=O)C(CC(=O)Nc2ccc(Br)cc2)N(CCCc2ccccc2)C1=S` (configuration not stated) is lower in z-score: -0.115 for the first, -0.204 for the second.

Going from `COc1ccc2[nH]cc(CCNC(=O)C3CCCNC3=O)c2c1` (configuration not stated) to `CCCCNC(=O)C1CCCNC1=O` (configuration not stated), the z-score rises from -0.00183 to 0.0768.

Going from `CCCC(=O)c1cc(F)c(N2CCOCC2)cc1C` to `CCCCNC(=O)c1ccc(N2CCOCC2)c(NS(=O)(=O)c2ccc(OC)cc2)c1`, the z-score rises from -0.198 to 0.358.

Compared with `COc1ccc(OC)c(NC(=O)C2CCCN(S(=O)(=O)c3cccc4nsnc34)C2)c1` (configuration not stated), `Cc1c(NC(=O)C2CCCN2S(=O)(=O)c2cccc3nsnc23)cccc1C(=O)O` (configuration not stated) is lower in z-score: 0.0355 for the first, -0.847 for the second.

Going from `COc1ccc(N2C(=O)C3[C@@H](C2=O)C2(Cl)C(Cl)=C(Cl)C3(Cl)C2(OC)OC)cc1` (some centres not stated) to `COc1ccc(-n2c(=O)c3ccccc3c3ccccc3c2=O)cc1`, the z-score falls from 0.105 to -0.0718.

Going from `O=S(=O)(Nc1ccc2nc(-c3ccc(Br)o3)[nH]c2c1)c1ccccc1` to `Cc1ccc(CSc2nnc(-c3ccc(NS(=O)(=O)c4ccccc4)cc3)o2)cc1`, the z-score rises from -0.849 to -0.055.

Going from `Cc1ccc(S(=O)(=O)Nc2ccc(-c3nc4cc(NS(=O)(=O)c5ccc(C)cc5)ccc4o3)cc2)cc1` to `COc1ccc(NC(=O)c2ccc(-c3ccccc3)cc2)cc1NS(=O)(=O)c1ccc(F)cc1`, the z-score falls from 0.0536 to -0.254.

Compared with `c1ccc(-n2c(Cc3cn4ccsc4n3)nnc2N2CCOCC2)cc1`, `Cc1cc(NC(=O)CN2CCOCC2)n(-c2nc3ccccc3s2)n1` is higher in z-score: -0.304 for the first, 0.191 for the second.

First: COc1cc(NC(=O)Cc2c(C(=O)O)[nH]c3ccccc23)cc(OC)c1OC
Second: COc1cc(NC(=O)C2=C(N3CCOCC3)/C(=C\c3ccc(Br)cc3)CC2)cc(OC)c1OC
The z-score of the first is lower: -0.207 for the first, 0.467 for the second.

Compared with `CCc1cccc(NC(=O)Cc2cn(C)c3ccccc23)c1`, `COC(=O)Cc1c(O)ccn(Cc2cccc3ccccc23)c1=O` is lower in z-score: 0.717 for the first, -0.166 for the second.

First: S=C(Nc1cccnc1)NC1CCCC1
Second: Cc1ccc(C(=O)N/C(=C\c2cccs2)C(=O)NC2CCCCC2)cc1
The z-score of the first is higher: -0.0835 for the first, -0.27 for the second.

First: Cc1cc(C2=NNC(=NC3CCCCC3)SC2)c(C)n1-c1c(C)n(C)n(-c2ccccc2)c1=O
Second: CC1CCN(c2cc(N3CCC(C)CC3)c([N+](=O)[O-])cc2/C=C(\C#N)c2nn(-c3ccccc3)c(N)c2C#N)CC1
The z-score of the first is higher: 0.562 for the first, -0.103 for the second.

Going from `C=CCOc1ccc(/C=N/N2C(=O)C(CC(=O)Nc3ccc(F)cc3F)SC2=NC)cc1` (configuration not stated) to `C=CCN1C(=O)/C(=C/c2ccc(OCC(=O)O)cc2)S/C1=N/c1nccs1`, the z-score falls from 0.119 to -0.81.

First: CN(C)/C=N/C(=S)Nc1ccc(Br)cc1F
Second: CNC(=S)Nc1ccc(OC)c(OC)c1
The z-score of the first is higher: 1.46 for the first, 0.0698 for the second.

Compared with `CCOc1ccc2[nH]c(C)cc(=O)c2c1`, `CCOC(=O)c1ccc(-n2c(=O)[nH]c3ccccc3c2=O)cc1` is lower in z-score: 0.745 for the first, 0.447 for the second.

Going from `CC[n+]1c(/C=C/c2ccc(N(C)C)cc2)ccc2ccccc21` to `Cc1nc(C)n(CC(O)COc2ccc3ccccc3c2)n1` (configuration not stated), the z-score falls from 0.4 to -0.726.

Compared with `CC1CCN(C(=O)C2CCCN(S(C)(=O)=O)C2)CC1` (configuration not stated), `CCCS(=O)(=O)N1CCCC(C(=O)N2CCN(c3ccccc3)CC2)C1` (configuration not stated) is higher in z-score: -0.179 for the first, 0.0741 for the second.

First: Cc1ccc(S(=O)(=O)NCc2n[nH]c(=S)n2C)cc1
Second: Cc1ccc(C)c(-n2c(Cc3cccs3)n[nH]c2=S)c1
The z-score of the first is higher: -0.112 for the first, -0.178 for the second.

First: O=C(Nc1cccc(Cl)c1)c1csc(-c2ccccc2)n1
Second: Cc1cnc(C(=O)OCC(=O)Nc2cccc(Cl)c2)cn1
The z-score of the first is higher: -0.387 for the first, -0.681 for the second.

First: Cc1ccc(OCCCC(=O)Nc2ccccc2C(F)(F)F)cc1
Second: Cc1ccc(/C(N)=N/OC(=O)Oc2ccccc2)cc1
The z-score of the first is lower: -0.375 for the first, -0.133 for the second.

First: C/C(NC(=O)c1cccc(F)c1)=C1/C(=O)C[C@@H]2[C@H]1C2(C)C
Second: CCCNC(=O)N1CCC(C(=O)c2cccc(F)c2)CC1
The z-score of the first is higher: 0.867 for the first, -0.0201 for the second.

Going from `Cc1ccc2nc(N3C(=O)C(O)=C(C(=O)c4ccco4)C3c3cccs3)sc2c1` (configuration not stated) to `Cc1ccc(C)c(N(C(=O)Cn2nnc(-c3cccs3)n2)C(C(=O)NC2CC2)c2ccc(C)o2)c1` (configuration not stated), the z-score rises from -1.09 to -0.759.

Going from `CCOC(=O)c1c(C)nc2sc3c(=O)n(-c4ccc(C(C)=O)cc4)cnc3c2c1-c1ccc(Cl)cc1` to `Cc1ccc(S(=O)(=O)Nc2ccc(Cl)cc2C(=O)c2ccc(F)cc2)cc1`, the z-score rises from -0.533 to 0.0268.

First: O=C(CCC1CCCCC1)Nc1c[nH]c(=O)[nH]c1=O
Second: O=C(CS(=O)CC(=O)N(c1cccc(F)c1)C(C(=O)NC1CCCCC1)c1ccco1)Nc1ccc(F)cc1 (configuration not stated)
The z-score of the first is lower: -0.157 for the first, -0.153 for the second.

Compared with `Cc1cccc(/C=C2\CS/C(=C\c3cccc(C)c3)C2=O)c1`, `CC1CC/C(=C\c2ccc3c(c2)OCO3)C(=O)/C1=C/c1ccc2c(c1)OCO2` (configuration not stated) is lower in z-score: -0.0758 for the first, -0.192 for the second.

Compared with `COc1ccc2c(CC(=O)NC3CCCc4ccccc43)coc2c1` (configuration not stated), `Cc1cccc(OC(C)C(=O)N2CCCc3ccccc32)c1` (configuration not stated) is higher in z-score: -0.484 for the first, -0.141 for the second.

Compared with `CCN1CCCC1CNCc1ccccc1OCc1ccc(F)cc1` (configuration not stated), `CCc1cccc(CC)c1NC(=O)c1cc(CN2C(=O)c3ccccc3C2=O)ccc1OC` is lower in z-score: -0.146 for the first, -0.874 for the second.

First: COc1ccc(-c2noc(COc3ccc4c(c3)OCO4)n2)cc1OC
Second: COc1ccc(S(=O)(=O)Nc2ccc(C(F)(F)F)cc2)cc1OC
The z-score of the first is lower: -0.634 for the first, -0.216 for the second.

Going from `CCOC(=O)c1c(NC(=O)Nc2cccc(Cl)c2)sc(C)c1C` to `CCOC(=O)c1c(NC(=O)C(Sc2ccccc2)c2ccccc2)sc(C(=O)N(C)C)c1C` (configuration not stated), the z-score falls from 0.0494 to -0.221.

Compared with `CC1CCCC(C(=O)O)N1C(=O)CCS` (configuration not stated), `CCC(=O)NNC(=O)CCC(=O)Nc1ccccc1` is lower in z-score: 1.41 for the first, 0.0236 for the second.

Going from `Cc1ccc(N(CCCCN2C(=O)c3ccccc3C2=O)C(=O)c2cccc([N+](=O)[O-])c2)cc1` to `CCOC(=O)C1=C(C)NC(C)=C(C(=O)OCCNC(=O)c2cccnc2)C1c1cccc([N+](=O)[O-])c1` (configuration not stated), the z-score falls from -0.0015 to -0.0655.

Going from `CCCCNC(=S)N(C)/N=C/c1ccc(OCC(=O)Nc2c(C)cc(C)cc2C)c(OC)c1` to `Cc1ccc(C)c(OCC(=O)N/N=C/c2ccsc2)c1`, the z-score rises from 0.00502 to 1.97.

Compared with `CC(C)C(=O)Nc1cc(S(=O)(=O)Nc2ccc(Cl)cc2)ccc1Cl`, `CCOc1ccc(Br)cc1S(=O)(=O)Nc1cccc(S(=O)(=O)N(C)C)c1` is higher in z-score: -0.205 for the first, -0.185 for the second.

Going from `COc1ccccc1-n1c(SCC(=O)NC2CCS(=O)(=O)C2)nc2cc([N+](=O)[O-])ccc21` (configuration not stated) to `CCOc1ccccc1C(=O)N(Cc1ccco1)C1CCS(=O)(=O)C1` (configuration not stated), the z-score rises from -0.116 to 0.0514.

Compared with `Brc1ccc2ncnc(NCc3ccco3)c2c1`, `O=C(Cn1c(C(=O)NCc2ccco2)cc2sccc21)c1ccccc1` is lower in z-score: -0.314 for the first, -0.393 for the second.

Going from `CCOC(=O)CNC(=O)c1ccc(C)cc1` to `CCCCS(=O)CC(CS(=O)CCCC)OC(=O)c1ccc(C)cc1` (configuration not stated), the z-score rises from -0.233 to 0.313.

First: CC(C)CCNC(=O)c1cc(-c2ccco2)nc2ccccc12
Second: CC1CN(C(=O)C(Sc2ccccc2)c2ccccc2)CC(C)O1 (configuration not stated)
The z-score of the first is higher: -0.0704 for the first, -0.352 for the second.

First: CCc1ccc(OCCOCC(O)CNC(C)CC)cc1 (configuration not stated)
Second: CCc1cc2c(SCC(=O)c3ccc(C)cc3)ncnc2s1
The z-score of the first is lower: 0.0842 for the first, 0.131 for the second.

Going from `Cc1nn(CC(=O)NCCCN2CCOCC2)c(C)c1[N+](=O)[O-]` to `COC(=O)CSc1nc(NCC(C)C)nc(N2CCOCC2)n1`, the z-score falls from 0.298 to -0.0815.

Going from `CS(=O)(=O)N(CC(=O)N1CCN(c2ccccc2)CC1)c1cccc(Br)c1` to `Cc1ccc(-c2nnc(N3CCN(C(=O)CSc4ncn[nH]4)CC3)c3ccccc23)cc1`, the z-score falls from 0.00864 to -0.877.

Compared with `O=C(CNC(=O)c1ccc(Cl)cc1Cl)NCCCn1ccnc1`, `Cc1ccc(CNC(=O)c2ccc(Cn3nc(C)c(Cl)c3C)o2)cc1` is higher in z-score: -0.00696 for the first, 0.794 for the second.

Compared with `C=CCn1c(SCC(=O)OC)nc2sc3c(c2c1=O)CCN(C)C3`, `COC(=O)CSc1nsc(SCC(=O)OC)n1` is lower in z-score: 0.122 for the first, -0.878 for the second.

First: Cc1cc(C)nc(-n2nc(C)cc2NC(=O)c2cccc(S(=O)(=O)N3CCOCC3)c2)n1
Second: CC1(C)CC(NS(=O)(=O)c2ccc(S(=O)(=O)N3CCOCC3)cc2)CCO1 (configuration not stated)
The z-score of the first is lower: -0.43 for the first, 2.05 for the second.

Compared with `O=c1[nH]c(Cn2nnc(-c3ccccc3)n2)nc2scc(-c3ccccc3)c12`, `O=c1c(-c2cc3ccccc3o2)[n+]([O-])c2ccccc2n1OCc1ccccn1` is lower in z-score: 0.724 for the first, -0.17 for the second.

First: O=C1CCCN1CCC1CCN(C2CC(=O)N(Cc3ccc(N4CCCC4=O)cc3)C2=O)CC1 (configuration not stated)
Second: CCN1C(=O)C2C(C1=O)N1C(c3cccs3)C3C(=O)N(CC)C(=O)C3N1C2c1cccs1 (configuration not stated)
The z-score of the first is higher: 0.557 for the first, -0.0354 for the second.

Going from `COc1cc(OC)c(OC)cc1CN1CCN(Cc2cccn2C)CC1` to `COCCn1c(C)cc2c(c1=O)C(c1ccccc1F)C(C#N)=C(N)O2` (configuration not stated), the z-score falls from -0.169 to -0.263.

First: OCCN1CCOCCOCCN(CCO)CCN(CCO)CC1
Second: O=C(NCCO)c1cc2c(s1)CCC2
The z-score of the first is higher: 0.325 for the first, -0.0332 for the second.

Going from `C(=N\N=C\c1cccnc1)/c1cccnc1` to `O=C(NN1C(=O)C2C3C=CC(C3)[C@H]2C1=O)c1cccnc1` (some centres not stated), the z-score rises from -0.247 to 0.075.

Compared with `O=C(N/N=C/c1cccc([N+](=O)[O-])c1O)c1cccs1`, `COCCn1c(=NC(=O)C(C)(C)C)sc2cc([N+](=O)[O-])ccc21` is lower in z-score: 1.3 for the first, -0.196 for the second.

Going from `Cc1[nH][nH]c(=O)c1C(c1ccc(-c2ccc(Cl)cc2Cl)o1)c1c(C)[nH][nH]c1=O` to `Cc1cccc(C(=O)Nc2nc(C)c(C(=O)Nc3ccc4c(c3)CCC4)s2)c1`, the z-score rises from -1.11 to -0.0981.

Molecule `O=C(Nc1ccc(Cl)cc1)N1CCSCC1` has a z-score of -0.498.
